Measured values taken from the supplement of paper PMC10369915.
The list shows a part of the results. Rule as the data show it: active = 3.2 or more and inactive = the rest. The signal is at background level for most entries.

Target: SHP2 C-SH2 domain E139D
Experiment: enrichment score (SH2-bound / input frequency) (ratio); bacterial display of known human phosphotyrosine sites (pTyr-Var adds point mutants) read by sequencing; higher = stronger binding; tyrosines were phosphorylated by kinases first
Conditions: peptide library: Human pTyr
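Also: displayed peptides selected on beads carrying the immobilized SH2 domain, with library peptides lacking any tyrosine serving as negative controls.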

Enrichment score, inactive:
AEEQVHTYVNTTGVQ [FRS2_HUMAN_196] 1.72
NLDPMHNYVNTENVT [FRS2_HUMAN_392] 0.847
AARQQAAYAAQTSPQ [FUBP1_HUMAN_625_YA] 0.741
SSSSDEEYIAMNKVT [AFAP1L2_HUMAN_54_YA] 0.64
YESDDDSYEVLDLTE [FUND1_HUMAN_18] 1.24
AESDDDSYEVLDLTE [FUND1_HUMAN_18_YA] 1.05
EDLADKPYTFEDADV [FXN_HUMAN_118_YA] 1.09
TTAVEIDYDSLKLKK [FYB_HUMAN_571] 0.863
IEDDQEVYDDVAEQD [FYB_HUMAN_595] 1.26

Target: SHP2 C-SH2 domain wild-type
Experiment: as above
Conditions: peptide library: Human pTyr

Enrichment score, inactive:
AEEQVHTYVNTTGVQ [FRS2_HUMAN_196] 2.05
NLDPMHNYVNTENVT [FRS2_HUMAN_392] 0.763
AARQQAAYAAQTSPQ [FUBP1_HUMAN_625_YA] 0.745
SSSSDEEYIAMNKVT [AFAP1L2_HUMAN_54_YA] 0.747
YESDDDSYEVLDLTE [FUND1_HUMAN_18] 0.961
AESDDDSYEVLDLTE [FUND1_HUMAN_18_YA] 1.08
EDLADKPYTFEDADV [FXN_HUMAN_118_YA] 1.09
TTAVEIDYDSLKLKK [FYB_HUMAN_571] 0.682
IEDDQEVYDDVAEQD [FYB_HUMAN_595] 1.06

Target: SHP2 N-SH2 domain L43F
Experiment: as above
Conditions: peptide library: Human pTyr

Enrichment score, inactive:
AEEQVHTYVNTTGVQ [FRS2_HUMAN_196] 1.78
NLDPMHNYVNTENVT [FRS2_HUMAN_392] 0.79
AARQQAAYAAQTSPQ [FUBP1_HUMAN_625_YA] 0.593
SSSSDEEYIAMNKVT [AFAP1L2_HUMAN_54_YA] 0.767
YESDDDSYEVLDLTE [FUND1_HUMAN_18] 1.13
AESDDDSYEVLDLTE [FUND1_HUMAN_18_YA] 0.854
EDLADKPYTFEDADV [FXN_HUMAN_118_YA] 1.16
TTAVEIDYDSLKLKK [FYB_HUMAN_571] 0.725
IEDDQEVYDDVAEQD [FYB_HUMAN_595] 1.01

Target: SHP2 N-SH2 domain T42A
Experiment: as above
Conditions: peptide library: Human pTyr

Enrichment score, inactive:
AEEQVHTYVNTTGVQ [FRS2_HUMAN_196] 1.73
NLDPMHNYVNTENVT [FRS2_HUMAN_392] 0.88
AARQQAAYAAQTSPQ [FUBP1_HUMAN_625_YA] 0.718
SSSSDEEYIAMNKVT [AFAP1L2_HUMAN_54_YA] 0.753
YESDDDSYEVLDLTE [FUND1_HUMAN_18] 1.3
AESDDDSYEVLDLTE [FUND1_HUMAN_18_YA] 1.22
EDLADKPYTFEDADV [FXN_HUMAN_118_YA] 1.11
TTAVEIDYDSLKLKK [FYB_HUMAN_571] 0.848
IEDDQEVYDDVAEQD [FYB_HUMAN_595] 1.56

Target: SHP2 N-SH2 domain T52S
Experiment: as above
Conditions: peptide library: Human pTyr

Enrichment score, inactive:
AEEQVHTYVNTTGVQ [FRS2_HUMAN_196] 1.99
NLDPMHNYVNTENVT [FRS2_HUMAN_392] 0.988
AARQQAAYAAQTSPQ [FUBP1_HUMAN_625_YA] 0.784
SSSSDEEYIAMNKVT [AFAP1L2_HUMAN_54_YA] 0.673
YESDDDSYEVLDLTE [FUND1_HUMAN_18] 0.905
AESDDDSYEVLDLTE [FUND1_HUMAN_18_YA] 1.34
EDLADKPYTFEDADV [FXN_HUMAN_118_YA] 1.31
TTAVEIDYDSLKLKK [FYB_HUMAN_571] 0.682
IEDDQEVYDDVAEQD [FYB_HUMAN_595] 2.3

Target: SHP2 N-SH2 domain wild-type
Experiment: as above
Conditions: peptide library: Human pTyr

Enrichment score, inactive:
AEEQVHTYVNTTGVQ [FRS2_HUMAN_196] 2.35
NLDPMHNYVNTENVT [FRS2_HUMAN_392] 0.866
AARQQAAYAAQTSPQ [FUBP1_HUMAN_625_YA] 0.747
SSSSDEEYIAMNKVT [AFAP1L2_HUMAN_54_YA] 0.777
YESDDDSYEVLDLTE [FUND1_HUMAN_18] 1.41
AESDDDSYEVLDLTE [FUND1_HUMAN_18_YA] 1.28
EDLADKPYTFEDADV [FXN_HUMAN_118_YA] 1.26
TTAVEIDYDSLKLKK [FYB_HUMAN_571] 0.829
IEDDQEVYDDVAEQD [FYB_HUMAN_595] 1.42
